Test results published in paper PMC7559981.
These are yes or no findings as the source states them, for the method shown. For some assays here: In cells and extracts the contact can be indirect. Some binding calls cover weakened binding; strength is not graded here. For some assays here: Sequences can lack the tags named with a protein.

The chains behind the UniProt entries cited, without tags or fusion partners.
UniProt P35222: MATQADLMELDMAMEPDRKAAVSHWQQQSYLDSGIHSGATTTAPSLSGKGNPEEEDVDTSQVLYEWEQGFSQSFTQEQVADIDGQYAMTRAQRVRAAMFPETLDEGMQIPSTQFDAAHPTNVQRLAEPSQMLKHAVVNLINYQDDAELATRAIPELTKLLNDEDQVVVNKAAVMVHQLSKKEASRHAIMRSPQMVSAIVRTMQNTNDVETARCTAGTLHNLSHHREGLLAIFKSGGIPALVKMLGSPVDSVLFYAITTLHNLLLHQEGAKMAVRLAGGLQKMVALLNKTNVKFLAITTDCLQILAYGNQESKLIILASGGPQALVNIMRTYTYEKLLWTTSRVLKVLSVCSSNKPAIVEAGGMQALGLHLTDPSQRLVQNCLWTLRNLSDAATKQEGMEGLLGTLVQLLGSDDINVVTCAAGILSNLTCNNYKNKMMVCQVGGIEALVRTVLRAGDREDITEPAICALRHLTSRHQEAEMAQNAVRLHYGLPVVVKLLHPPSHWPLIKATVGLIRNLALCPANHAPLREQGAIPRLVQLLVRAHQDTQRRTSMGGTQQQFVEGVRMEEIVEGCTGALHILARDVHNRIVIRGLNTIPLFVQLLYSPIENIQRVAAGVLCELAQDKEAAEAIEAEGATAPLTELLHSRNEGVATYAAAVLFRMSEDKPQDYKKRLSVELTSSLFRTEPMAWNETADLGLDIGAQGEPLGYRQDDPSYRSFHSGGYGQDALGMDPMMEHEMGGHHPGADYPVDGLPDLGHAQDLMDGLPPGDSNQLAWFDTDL

Experiments:
[1] = molecular target: T1, GST-TR4-LBD [aa 224–615] (UniProt P49116); test: pull-down; purified GST fusion protein on glutathione-Sepharose-4B beads incubated 12 h at 4 °C with 5 μL of in vitro translated ^35S-labeled protein in GST binding buffer (50 mM HEPES pH 7.6, 50 mM NaCl, 0.1% Nonidet P-40, 5 mM EDTA, 10% glycerol); washes with 500 mM NaCl; SDS-PAGE and autoradiography; only the target purified
T1 sequence: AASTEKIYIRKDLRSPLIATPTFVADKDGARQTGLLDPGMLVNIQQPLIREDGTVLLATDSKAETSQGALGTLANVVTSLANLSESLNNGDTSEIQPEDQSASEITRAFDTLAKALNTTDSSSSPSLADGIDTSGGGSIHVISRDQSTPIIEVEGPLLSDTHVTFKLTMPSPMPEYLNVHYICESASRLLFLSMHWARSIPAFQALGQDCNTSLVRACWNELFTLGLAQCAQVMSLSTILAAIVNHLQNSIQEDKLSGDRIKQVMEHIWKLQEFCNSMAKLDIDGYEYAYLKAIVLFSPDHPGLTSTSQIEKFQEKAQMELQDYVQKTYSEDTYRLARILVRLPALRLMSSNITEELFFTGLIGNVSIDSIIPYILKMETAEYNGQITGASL

[2] = molecular target: T2, GST-TR4-N [aa 1–125] (UniProt P49116); test: as above
T2 sequence: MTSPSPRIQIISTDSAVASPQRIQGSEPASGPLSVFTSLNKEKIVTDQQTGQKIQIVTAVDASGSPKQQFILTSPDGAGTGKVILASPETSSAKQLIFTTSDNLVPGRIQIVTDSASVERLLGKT

[3] = molecular target: T3, GST-TR4-∆C [aa 1–348] (UniProt P49116); test: as above
T3 sequence: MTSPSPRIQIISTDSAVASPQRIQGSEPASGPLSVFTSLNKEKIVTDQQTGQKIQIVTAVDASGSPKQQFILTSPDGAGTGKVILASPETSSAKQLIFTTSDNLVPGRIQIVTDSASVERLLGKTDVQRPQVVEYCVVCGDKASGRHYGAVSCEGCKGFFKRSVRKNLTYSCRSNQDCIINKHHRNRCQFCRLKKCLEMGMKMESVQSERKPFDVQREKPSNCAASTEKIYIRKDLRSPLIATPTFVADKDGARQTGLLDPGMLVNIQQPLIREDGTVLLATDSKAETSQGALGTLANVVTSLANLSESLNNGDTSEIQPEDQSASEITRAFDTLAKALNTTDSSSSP

[4] = molecular target: T4, GST-TR4-FL (UniProt P49116); test: as above
T4 sequence: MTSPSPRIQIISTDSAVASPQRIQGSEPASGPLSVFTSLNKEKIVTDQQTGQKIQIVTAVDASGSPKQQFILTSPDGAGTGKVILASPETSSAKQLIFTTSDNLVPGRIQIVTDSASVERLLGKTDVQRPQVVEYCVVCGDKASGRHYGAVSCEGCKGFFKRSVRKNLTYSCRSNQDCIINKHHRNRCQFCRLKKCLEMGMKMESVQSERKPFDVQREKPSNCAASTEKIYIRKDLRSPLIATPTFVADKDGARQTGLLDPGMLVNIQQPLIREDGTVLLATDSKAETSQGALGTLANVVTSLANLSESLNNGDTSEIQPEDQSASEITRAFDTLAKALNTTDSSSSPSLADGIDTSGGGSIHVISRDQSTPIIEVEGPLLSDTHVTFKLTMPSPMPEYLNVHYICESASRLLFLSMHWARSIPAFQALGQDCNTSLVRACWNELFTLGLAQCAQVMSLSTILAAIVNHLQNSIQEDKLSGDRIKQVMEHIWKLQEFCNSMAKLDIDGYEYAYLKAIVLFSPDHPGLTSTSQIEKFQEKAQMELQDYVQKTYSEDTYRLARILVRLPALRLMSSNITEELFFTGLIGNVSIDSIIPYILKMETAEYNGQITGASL

[5] = molecular target: T5, GST-Slug-2 (mouse) (UniProt P97469); test: as above
T5 sequence: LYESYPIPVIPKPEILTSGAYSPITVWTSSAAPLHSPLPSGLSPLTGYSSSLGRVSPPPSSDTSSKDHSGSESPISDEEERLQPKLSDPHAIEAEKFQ

[6] = molecular target: T4, GST-TR4-FL; test: pull-down; GST pull-down of in vitro translated ^35S-labeled protein by purified GST-TR4 on beads, in the absence or presence of a non-radiolabeled in vitro translated competitor (TR4, Slug or Slug-2); only the target purified
[7] = molecular target: T6, GAL4-Slug-2 (aa 33–130) (mouse) (UniProt P97469); test: two-hybrid; mammalian two-hybrid in HEK293T cells: pG5-Luc co-transfected with Gal4-Slug constructs and VP16-TR4; luciferase read-out
T6 sequence: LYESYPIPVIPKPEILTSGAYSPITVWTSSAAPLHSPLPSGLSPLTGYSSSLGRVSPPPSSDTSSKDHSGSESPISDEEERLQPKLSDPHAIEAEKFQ

[8] = molecular target: T7, GAL4-Slug-ΔSNAG (aa 33–269) (mouse) (UniProt P97469); test: as above
T7 sequence: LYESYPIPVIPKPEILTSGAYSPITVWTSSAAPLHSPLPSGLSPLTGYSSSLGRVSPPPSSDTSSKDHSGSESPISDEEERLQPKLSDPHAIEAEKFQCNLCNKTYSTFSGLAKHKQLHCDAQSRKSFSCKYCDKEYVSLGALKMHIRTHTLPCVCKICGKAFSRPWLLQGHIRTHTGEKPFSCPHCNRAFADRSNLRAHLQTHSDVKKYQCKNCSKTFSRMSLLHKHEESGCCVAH

[9] = molecular target: T8, GAL4-Slug-ΔDBD (aa 131–269) (mouse) (UniProt P97469); test: as above
T8 sequence: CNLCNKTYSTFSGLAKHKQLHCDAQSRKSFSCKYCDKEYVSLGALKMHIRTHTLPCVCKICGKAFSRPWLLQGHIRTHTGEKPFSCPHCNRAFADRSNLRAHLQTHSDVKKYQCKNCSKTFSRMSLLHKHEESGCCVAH

[10] = molecular target: T9, GAL4-Slug-ΔDBD (aa 1–130) (mouse) (UniProt P97469); test: as above
T9 sequence: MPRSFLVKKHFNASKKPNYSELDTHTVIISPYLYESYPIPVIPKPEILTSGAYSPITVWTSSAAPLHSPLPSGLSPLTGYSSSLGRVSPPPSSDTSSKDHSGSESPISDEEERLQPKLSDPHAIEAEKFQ

^35S-labeled β-catenin (from UniProt P35222 1-781)
binding [1]: no binding
binding [2]: no binding
binding [3]: no binding
binding [4]: no binding

B1: in vitro translated TR4 (receptor, UniProt P49116-2 1-615)
chain: MTSPSPRIQIISTDSAVASPQRIQGSEPASGPLSVFTSLNKEKIVTDQQTGQKIQIVTAVDASGSPKQQFILTSPDGAGTGKVILASPETSSAKQLIFTTSDNLVPGRIQIVTDSASVERLLGKTDVQRPQVVEYCVVCGDKASGRHYGAVSCEGCKGFFKRSVRKNLTYSCRSNQDCIINKHHRNRCQFCRLKKCLEMGMKMESVQSERKPFDVQREKPSNCAASTEKIYIRKDLRSPLIATPTFVADKDGARQTGLLDPGMLVNIQQPLIREDGTVLLATDSKAETSQGALGTLANVVTSLANLSESLNNGDTSEIQPEDQSASEITRAFDTLAKALNTTDSSSSPSLADGIDTSGGGSIHVISRDQSTPIIEVEGPLLSDTHVTFKLTMPSPMPEYLNVHYICESASRLLFLSMHWARSIPAFQALGQDCNTSLVRACWNELFTLGLAQCAQVMSLSTILAAIVNHLQNSIQEDKLSGDRIKQVMEHIWKLQEFCNSMAKLDIDGYEYAYLKAIVLFSPDHPGLTSTSQIEKFQEKAQMELQDYVQKTYSEDTYRLARILVRLPALRLMSSNITEELFFTGLIGNVSIDSIIPYILKMETAEYNGQITGASL
modifications: ^35S label (non-radiolabeled where used as competitor)
binding [5]: binds
binding [6]: binds

B2: in vitro translated Slug-2 (domain or fragment, UniProt P97469 33-130)
chain: LYESYPIPVIPKPEILTSGAYSPITVWTSSAAPLHSPLPSGLSPLTGYSSSLGRVSPPPSSDTSSKDHSGSESPISDEEERLQPKLSDPHAIEAEKFQ
binding [6]: binds

B3: VP16-TR4 (receptor, UniProt P49116-2 1-615)
chain: MTSPSPRIQIISTDSAVASPQRIQGSEPASGPLSVFTSLNKEKIVTDQQTGQKIQIVTAVDASGSPKQQFILTSPDGAGTGKVILASPETSSAKQLIFTTSDNLVPGRIQIVTDSASVERLLGKTDVQRPQVVEYCVVCGDKASGRHYGAVSCEGCKGFFKRSVRKNLTYSCRSNQDCIINKHHRNRCQFCRLKKCLEMGMKMESVQSERKPFDVQREKPSNCAASTEKIYIRKDLRSPLIATPTFVADKDGARQTGLLDPGMLVNIQQPLIREDGTVLLATDSKAETSQGALGTLANVVTSLANLSESLNNGDTSEIQPEDQSASEITRAFDTLAKALNTTDSSSSPSLADGIDTSGGGSIHVISRDQSTPIIEVEGPLLSDTHVTFKLTMPSPMPEYLNVHYICESASRLLFLSMHWARSIPAFQALGQDCNTSLVRACWNELFTLGLAQCAQVMSLSTILAAIVNHLQNSIQEDKLSGDRIKQVMEHIWKLQEFCNSMAKLDIDGYEYAYLKAIVLFSPDHPGLTSTSQIEKFQEKAQMELQDYVQKTYSEDTYRLARILVRLPALRLMSSNITEELFFTGLIGNVSIDSIIPYILKMETAEYNGQITGASL
binding [7]: binds
binding [8]: binds
binding [9]: no binding
binding [10]: binds
